Reference: publication PMC8634136 (The EMBO Journal, 2021)

Tests used:
Assay in all cases: cryo-EM structure; replisome reconstituted on fork DNA with AMP-PNP, isolated on a glycerol gradient with glutaraldehyde and BS3; 3.2 Å overall; a sample without CLASPIN solved at 3.4 Å
Details in all cases: both partners purified
[1] = biological target: T1, TIMELESS (human, UniProt Q9UNS1 1-1208)
T1 construct: Stood in the structure as a subunit of m3; residues 7-803 modelled (527-684 not visualised)
T1 sequence: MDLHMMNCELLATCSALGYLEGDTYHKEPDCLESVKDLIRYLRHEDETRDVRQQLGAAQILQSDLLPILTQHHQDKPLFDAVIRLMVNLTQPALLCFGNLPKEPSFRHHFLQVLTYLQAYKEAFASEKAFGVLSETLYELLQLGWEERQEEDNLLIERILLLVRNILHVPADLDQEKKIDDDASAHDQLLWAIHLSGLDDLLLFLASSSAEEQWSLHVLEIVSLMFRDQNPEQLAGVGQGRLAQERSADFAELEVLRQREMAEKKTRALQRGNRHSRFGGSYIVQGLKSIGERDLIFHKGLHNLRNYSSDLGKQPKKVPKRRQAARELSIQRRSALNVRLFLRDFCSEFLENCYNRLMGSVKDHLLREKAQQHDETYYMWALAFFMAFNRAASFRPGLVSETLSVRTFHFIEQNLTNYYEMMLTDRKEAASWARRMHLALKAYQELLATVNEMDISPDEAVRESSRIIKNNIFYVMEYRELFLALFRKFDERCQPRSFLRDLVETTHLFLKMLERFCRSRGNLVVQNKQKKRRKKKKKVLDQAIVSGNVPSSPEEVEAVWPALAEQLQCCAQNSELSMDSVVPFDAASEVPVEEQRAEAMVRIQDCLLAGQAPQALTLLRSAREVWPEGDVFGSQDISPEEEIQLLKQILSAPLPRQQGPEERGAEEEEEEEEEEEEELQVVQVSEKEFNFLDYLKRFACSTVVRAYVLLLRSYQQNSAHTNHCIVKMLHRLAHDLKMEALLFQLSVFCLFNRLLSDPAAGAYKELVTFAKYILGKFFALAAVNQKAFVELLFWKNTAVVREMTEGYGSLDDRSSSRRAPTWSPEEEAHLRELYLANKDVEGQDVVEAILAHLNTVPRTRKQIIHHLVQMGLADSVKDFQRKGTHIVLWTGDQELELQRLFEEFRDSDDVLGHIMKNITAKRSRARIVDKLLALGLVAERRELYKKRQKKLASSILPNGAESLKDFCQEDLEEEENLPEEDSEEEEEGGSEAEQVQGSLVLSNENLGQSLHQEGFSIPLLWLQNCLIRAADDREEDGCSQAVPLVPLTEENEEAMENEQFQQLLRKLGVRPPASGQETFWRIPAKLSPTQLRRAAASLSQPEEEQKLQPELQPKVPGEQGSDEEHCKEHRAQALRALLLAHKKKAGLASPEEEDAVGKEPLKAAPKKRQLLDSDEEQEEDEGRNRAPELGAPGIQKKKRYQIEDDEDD

[2] = biological target: T2, CLASPIN (human, UniProt Q9HAW4)
T2 construct: CLASPIN, human; Only residues 284-319, 525-540 and 592-618 are modelled in the structure; source: Hi5 insect cells (baculovirus), purified (Flag M2, Superose 6)

[3] = biological target: T3, POLE1 (human, UniProt Q07864 1-2286)
T3 construct: POLE1, catalytic subunit of Pol ε, human; Stood in the structure as a subunit of m2; residues 1,371-2,280 modelled; also called POLE1 catalytic subunit; POLE1^nonCat (the modelled C-terminal non-catalytic domain); source: Hi5 insect cells, purified as a subunit of Pol ε

Measured: binding result

B1: MCM2 (natural protein)
chain: not shown
notes: MCM2, human; Stood in the structure as a subunit of m1; source: Hi5 insect cells, purified as a subunit of hsCMG
binds: all assays above
